{
  "source": "the supplement of paper PMC11417369",
  "note": "± gives the standard deviation of the averaged measurements. The list shows a part of the results.",
  "data": [
    {"system": "PfAP2-G AP2 domain (GST-tagged)", "assay": "gcPBM binding intensity (ln(normalized median fluorescence intensity)); higher = stronger DNA binding", "method_in_brief": "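For binding intensity, the highest Masliner-normalised natural-log median intensity across replicate spots of either probe orientation was taken. Protein bound to the array was stained with Alexa488 anti-GST antibody and scanned at 488 nm. The protein, GST-tagged P. falciparum DNA-binding domains from E. coli at about 25 μg on average, had been applied for 1 h to an Agilent 4 × 180k array of primer-extended double-stranded 36-bp intergenic genomic probes and negative controls.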", "values": [
      {"sequence": "TTCTATATATTTTAATGTACATATATGATTATTCTT [XGTACX_site8294]", "gcPBM binding intensity (ln)": "11.2 ± 0.67"},
      {"sequence": "ATATAGTATAATAAAAGTACATTTTGATTTTTTCTC [XGTACX_site1797]", "gcPBM binding intensity (ln)": "11.2 ± 0.79"},
      {"sequence": "ATTATTAAAAAGATGTAAATAAATGAATATATGCTT [CACACA_negctrl_site539]", "gcPBM binding intensity (ln)": "9.81 ± 0.11"},
      {"sequence": "GTCGCATTTTATACAAGTACACATGAATTATACAAC [XGTACX_site2200]", "gcPBM binding intensity (ln)": "11.4 ± 0.91"},
      {"sequence": "TAAATAATATCTATCACACACGCATATATACATATA [CACACA_site2622]", "gcPBM binding intensity (ln)": "9.93 ± 0.12"},
      {"sequence": "ACTCTTAAAATGTATTGTACATAATTTTTACAAGGG [XGTACX_site6611]", "gcPBM binding intensity (ln)": "11.2 ± 0.74"},
      {"sequence": "AGGTAGTTCTGTATCACACACATATATATATATATA [CACACA_site2214]", "gcPBM binding intensity (ln)": "10.2 ± 0.17"},
      {"sequence": "AACATTATAAGACACACACACACATATATATATATA [CACACA_site8259]", "gcPBM binding intensity (ln)": "10.2 ± 0.2"},
      {"sequence": "GGAGAATAGTGGAAAACACACACGTTTGAGATATGG [CACACA_site1168]", "gcPBM binding intensity (ln)": "9.98 ± 0.15"},
      {"sequence": "CAAAAACGGAAGTGGTGTACCGATATTATATAAACA [XGTACX_site4962]", "gcPBM binding intensity (ln)": "11.1 ± 0.61"},
      {"sequence": "TTTTTTTTTTTTACCTGTACATGTCAGCAAACTTTT [XGTACX_site1171]", "gcPBM binding intensity (ln)": "11.1 ± 1"},
      {"sequence": "TTTCCATTATGATATAGTACATAAATATATGTAATA [XGTACX_site6992]", "gcPBM binding intensity (ln)": "11.1 ± 0.7"},
      {"sequence": "TTGTGTGTATGTATACATATATATATTGAGACGAAT [TGCATGCA_negctrl_site382]", "gcPBM binding intensity (ln)": "10.17 ± 0.099"},
      {"sequence": "ACTATAAATATATAAATATATATATATATATATATA [GTGCAC_negctrl_site65]", "gcPBM binding intensity (ln)": "9.91 ± 0.59"},
      {"sequence": "AAAAAAAATATATAAACACACATATTTATATACTCA [CACACA_site4984]", "gcPBM binding intensity (ln)": "9.665 ± 0.092"},
      {"sequence": "ACATATAATAAAAAATGTACACACATAAGAAAATTT [XGTACX_site6153]", "gcPBM binding intensity (ln)": "11.2 ± 0.7"},
      {"sequence": "TAATATCATTTATATTGTACTATAACAAAATCTATA [XGTACX_site7700]", "gcPBM binding intensity (ln)": "10.8 ± 0.59"},
      {"sequence": "TAAATACACTGTAGCGCACACGGCCAAAAAAAAAAA [CACACA_site1818]", "gcPBM binding intensity (ln)": "10.6 ± 0.4"},
      {"sequence": "TACTATCTATACAATACACACAAAAAAAAAAAAATA [CACACA_site3981]", "gcPBM binding intensity (ln)": "10 ± 0.52"},
      {"sequence": "TTATTATCCTATATTTCTTTTCCTTCTTCAAAATTA [CACACA_negctrl_site1314]", "gcPBM binding intensity (ln)": "9.56 ± 0.028"},
      {"sequence": "ATAAATAAGATACGTACACACATATACAAAATATAC [CACACA_site3661]", "gcPBM binding intensity (ln)": "11.5 ± 0.95"},
      {"sequence": "TATGTCAATTTTCATACATGCGCATAATCTTTATTT [TGCATGCA_site807]", "gcPBM binding intensity (ln)": 9.94},
      {"sequence": "AAAGTTTTTATACATACACACCTATAAATTAAGTGC [CACACA_site7198]", "gcPBM binding intensity (ln)": "9.88 ± 0.12"},
      {"sequence": "GAAAGAATAAAATAAACATGCAAATAAAACATAAAA [TGCATGCA_site471]", "gcPBM binding intensity (ln)": "9.81 ± 0.2"},
      {"sequence": "TATAAAACCCTACTGTTTCTTCTTTATTGATATATT [TGCATGCA_negctrl_site285]", "gcPBM binding intensity (ln)": "9.75 ± 0.13"},
      {"sequence": "TCATAAAGAACAAAGTGTACCTATATATTACATACA [XGTACX_site7595]", "gcPBM binding intensity (ln)": "11 ± 0.58"},
      {"sequence": "AATTGTAAATTGGGCACTTATAAAAATGAACAAATA [CACACA_negctrl_site1583]", "gcPBM binding intensity (ln)": "10.4 ± 0.25"},
      {"sequence": "ATATTTCATCTAGCTACACACATATAATAAATTATT [CACACA_site4094]", "gcPBM binding intensity (ln)": "10.14 ± 0.035"},
      {"sequence": "ATTAAAAGGGGGTTTACATGTGTGTGTGTAATATGG [TGCATGCA_negctrl_site293]", "gcPBM binding intensity (ln)": "10.5 ± 0.29"},
      {"sequence": "TACAACAATTTTTGCACACACCAAAACATAAAATAA [CACACA_site4964]", "gcPBM binding intensity (ln)": "10.2 ± 0.28"},
      {"sequence": "TTTTCAATATATAGAGCATGCGCATCCACAAATATG [TGCATGCA_site380]", "gcPBM binding intensity (ln)": "10.2 ± 0.092"},
      {"sequence": "TGCCAATTTTTAAAAACATGCATTATATAGAATAAA [TGCATGCA_site872]", "gcPBM binding intensity (ln)": "9.885 ± 0.021"},
      {"sequence": "AATGGAAAATTATTAACACACACATATAAATATATA [CACACA_site7899]", "gcPBM binding intensity (ln)": "9.935 ± 0.021"},
      {"sequence": "TATATACCGATATATACACACAAATACATAAGCTTC [CACACA_site6760]", "gcPBM binding intensity (ln)": "10 ± 0.13"},
      {"sequence": "TTATACATTTGTAAATAAATAGAACTGTATTTTTTT [TGCATGCA_negctrl_site397]", "gcPBM binding intensity (ln)": "9.72 ± 0.042"},
      {"sequence": "CAAAATATTTTTATAACACACATATTTATAACGTGC [CACACA_site6659]", "gcPBM binding intensity (ln)": "9.925 ± 0.035"},
      {"sequence": "TTTTGATTGTTATTCGTATATTATTTTATGATTATA [CACACA_negctrl_site1593]", "gcPBM binding intensity (ln)": "9.905 ± 0.064"},
      {"sequence": "AATAATCATTTTCATAGTACGTATGATTAGAAAAAA [XGTACX_site2589]", "gcPBM binding intensity (ln)": "11 ± 0.66"},
      {"sequence": "TATATATTATGACCACCACACACCTATACACATAAC [CACACA_site8773]", "gcPBM binding intensity (ln)": "11.3 ± 0.79"},
      {"sequence": "TATTTCTGATTATTTTGTACACATTATATATAATGC [XGTACX_site6990]", "gcPBM binding intensity (ln)": "11.2 ± 0.83"},
      {"sequence": "CTAAATATATAAAAAAGTACAAAATAAATAATAATT [XGTACX_site2442]", "gcPBM binding intensity (ln)": "11.2 ± 0.66"},
      {"sequence": "GGATAGATAATAGGGGGTACAAATATACATACATAT [XGTACX_site5089]", "gcPBM binding intensity (ln)": "11.5 ± 0.91"},
      {"sequence": "TTTTAATGAAAACACACACACACATATATATATATA [CACACA_site5295]", "gcPBM binding intensity (ln)": "10.3 ± 0.44"},
      {"sequence": "GAAAATAGAAAAAGCACACATATATTTTGGAATGTA [CACACA_site551]", "gcPBM binding intensity (ln)": "9.81 ± 0.28"}
    ]}
  ]
}
